# Toxic doses and inconclusive results are not listed. Certain results were filed several times, with different values. The list is limited to them. The source may hold further records. Results that share an entry differ, and nothing given here explains why; they may come from other doses, times, organisms or constructs than stated. A tag in brackets gives the origin of a value. The letters are not those of the source and start again with each entry.
# Tested on: L1210 leukemia ip in BDF1 mice, survival T/C
# Assay: NCI In Vivo Anticancer Drug Screen. Data for tumor model L1210 Leukemia (intraperitoneal) in B6D2F1 (BDF1) mice
# Conditions: endpoint: mean survival time, vehicle: saline, higher = longer survival
structure (smiles),measurement,setting,value
CCCC(=O)NC1=C(N2CC2)C(=O)C(NC(=O)CCC)=C(N2CC2)C1=O,T/C,"dose: 4.0 mg/kg/injection, schedule: Q01DX Z (ip)",117 % of control and 167 % of control
COC1OC(CO)C(O)C(NC(=O)N(C)N=O)C1O (stereo not drawn),T/C,"dose: 150.0 mg/kg/injection, schedule: Q01DX009 (ip)",118 % of control [sample A] and 157 % of control [sample B]
Nc1nc2nc(-c3ccccc3)nc(N)c2nc1-c1ccc(N(CCO)CCO)cc1,T/C,"dose: 100.0 mg/kg/injection, schedule: Q01DX001 (ip)",96 % of control and 160 % of control

# — PubChem BioAssay AID248 (DTP/NCI, 2004)
